91 compounds from PubChem BioAssay AID360 (National Center for Advancing Translational Sciences (NCATS), 2006) can be followed below.

The structures appear in SMILES notation. Out of some 48,000 compounds screened, about 550 (1.1%) were called active. Roughly 4% stayed inconclusive and do not appear here. Cut-off read from the data, not from the text of the source: active = potency below about 15 µM; inconclusive = mostly about 16 µM to 33 µM; inactive = weaker than that. The list shows a part of the results.
Potency is the fitted concentration of half-maximal effect.

The assay concerns the target Lysosomal acid glucosylceramidase (Homo sapiens) (UniProt P04062). The experiment in a line: Glucocerebrosidase.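 Note: the screen sought inhibitors.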 As to conditions: purified enzyme, resorufin glucoside fluorescence (screen aimed at inhibitors), 20 min. A digest of the protocol: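 Normal human glucocerebrosidase (0.2 nM final) was assayed with resorufin β-D-glucopyranoside (30 uM final) in 50mM citric acid/KH2PO4, 10mM sodium taurocholate, 0.01% tween-20, pH 5.9. Compounds were titrated; fluorescence (Ex 548, Em 600) read after 20 min at RT.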
Chain of UniProt P04062 (P04062 whole entry, looked up): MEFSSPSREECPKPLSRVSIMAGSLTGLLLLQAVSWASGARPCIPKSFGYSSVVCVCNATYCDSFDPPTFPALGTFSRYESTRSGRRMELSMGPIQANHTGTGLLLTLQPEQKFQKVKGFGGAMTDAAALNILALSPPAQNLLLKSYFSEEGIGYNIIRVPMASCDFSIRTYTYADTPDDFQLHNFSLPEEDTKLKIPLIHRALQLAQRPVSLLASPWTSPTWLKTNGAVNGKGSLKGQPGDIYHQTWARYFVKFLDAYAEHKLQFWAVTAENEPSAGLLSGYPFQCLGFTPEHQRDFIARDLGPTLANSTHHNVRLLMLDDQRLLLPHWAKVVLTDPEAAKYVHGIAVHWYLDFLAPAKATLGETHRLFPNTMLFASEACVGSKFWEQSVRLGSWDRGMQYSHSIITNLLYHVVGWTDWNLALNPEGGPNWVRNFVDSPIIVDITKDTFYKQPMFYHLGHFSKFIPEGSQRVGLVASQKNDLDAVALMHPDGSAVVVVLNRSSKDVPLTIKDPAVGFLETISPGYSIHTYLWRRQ
On to `NC(=O)C1CCN(C(=O)CSCc2ccccc2Cl)CC1`, for which the Potency was inactive: > 76.9 µM.

On to `O=C(NCCc1ccccc1)C1CCN(S(=O)(=O)N2CCC3(CC2)OCCO3)CC1`, for which the Potency is inactive: > 76.9 µM.

As for `c1cnc(N2CCN(c3nc4ccccc4n4cnnc34)CC2)nc1`, the Potency is inactive: > 76.9 µM.

Regarding `O=C(CN1C(=O)c2ccccc2S1(=O)=O)Nc1ccc(S(=O)(=O)N2CCCCCC2)cc1`, the Potency was inactive: > 76.9 µM.

In the case of `COc1ccc(OCC(O)Cn2c(Nc3ccccc3)nc3c2c(=O)n(C)c(=O)n3C)cc1` (stereo unspecified), the Potency was inactive: > 76.9 µM.

Turning to `Fc1ccc(C(c2nnnn2Cc2cccs2)N2CCN(C3CCCC3)CC2)cc1` (stereo unspecified), the Potency was inactive: > 76.9 µM.

As to `Cc1c(NC(=O)OCCNC(=O)Nc2ccccc2)sc(=S)n1C`, the Potency was inactive: > 76.9 µM.

With `CCN(Cc1cc2ccccc2[nH]c1=O)C(=O)C(C)C`, the Potency was inactive: > 76.9 µM.

As for `CCCS(=O)(=O)N1CCCC(C(=O)NCc2ccco2)C1` (stereo unspecified), the Potency is inactive: > 76.9 µM.

As for `COc1ccc(OC)c(C(=O)c2coc3ccc(O)c(CN4CCOCC4)c23)c1`, the Potency is inactive: > 76.9 µM.

As to `COc1ccc(-c2nnc(SCC#CCO)o2)cc1OC`, the Potency is inactive: > 76.9 µM.

Take `C=CCn1c(CNC(=O)CCC)nc2ccccc21`: the Potency was inactive: > 76.9 µM.

`COCCNC(=O)C(c1ccccc1)N(C(=O)Cn1nnc2ccccc21)c1cccnc1` (stereo unspecified): the Potency was inactive: > 76.9 µM.

With `CC(=O)Nc1nc(CCC(C)C)cc2c1c(=O)oc1ccccc12`, the Potency is inactive: > 76.9 µM.

As for `Cc1sc2ncnc(OCC(=O)NCc3cccs3)c2c1C`, the Potency is inactive: > 76.9 µM.

In the case of `O=C(c1ccccc1C(F)(F)F)N1CCN(S(=O)(=O)c2ccccc2)CC1`, the Potency is inactive: > 76.9 µM.

As to `Cc1ccc(N(C(C)C(=O)N2CCCCC2)S(C)(=O)=O)cc1C` (stereo unspecified), the Potency is inactive: > 76.9 µM.

`N#Cc1c(N)c(C(=O)c2ccccc2)n2c1CCCC2`: the Potency was inactive: > 76.9 µM.

For `O=C(NCCc1ccccc1)C1CCN(c2nc3ccccc3o2)CC1`, the Potency was inactive: > 76.9 µM.

Turning to `Cc1cc(S(=O)(=O)NC2CCCC2)ccc1F`, the Potency is inactive: > 76.9 µM.

Consider `Cc1ccc(NC(=O)CN(C)S(=O)(=O)c2cccc3nsnc23)cc1`, for which the Potency was inactive: > 76.9 µM.

With `O=C(NC1(C(=O)NC2CCCC2)CCCCC1)c1ccc2c(c1)OCO2`, the Potency is inactive: > 76.9 µM.

With `CSc1ccc(S(=O)(=O)NCc2ccc(Cl)cc2)cc1`, the Potency was inactive: > 76.9 µM.

As for `Cn1c(=O)c2c(nc(NCc3ccc4c(c3)OCO4)n2C)n(C)c1=O`, the Potency was inactive: > 76.9 µM.

In the case of `C=CCn1c(=O)c2ccccc2n2c(SCC(=O)/C(C#N)=C(\C)N)nnc12`, the Potency was inactive: > 76.9 µM.

For the compound `O=C(c1ccco1)N(Cc1nc2ccccc2c(=O)[nH]1)C1CCCC1`, the Potency was inactive: > 76.9 µM.

Regarding `Cc1nc(SC2CC(=O)N(c3ccccc3)C2=O)nc2c1CCCC2` (stereo unspecified), the Potency was inactive: > 76.9 µM.

In the case of `Cc1cc(C)n(S(=O)(=O)c2cc(C)c(C)cc2C)n1`, the Potency is inactive: > 76.9 µM.

`O=C(CSc1nnc(-c2ccccc2O)o1)N1CCc2ccccc2C1`: the Potency was inactive: > 76.9 µM.

As for `CCOc1ccccc1CN1C(=O)NC(C)(c2ccccc2)C1=O` (stereo unspecified), the Potency is inactive: > 76.9 µM.

As for `COC(=O)CS(=O)(=O)c1ccc2c(c1)CC(=O)N2`, the Potency was inactive: > 76.9 µM.

In the case of `O=c1cc(N2CCN(c3ccc(F)cc3)CC2)[nH]c(=O)n1C1CCCCC1`, the Potency is inactive: > 76.9 µM.

For `CCC(c1nnnn1Cc1ccco1)N1CCN(C(=O)c2ccco2)CC1` (stereo unspecified), the Potency is inactive: > 76.9 µM.

For `O=S(=O)(NCC1CCCO1)c1cccc(S(=O)(=O)N2CCCC2)c1` (stereo unspecified), the Potency is inactive: > 76.9 µM.

Take `CCn1c(SCC(=O)Nc2ccccc2N2CCOCC2)nnc1-c1ccccc1O`: the Potency was inactive: > 76.9 µM.

Regarding `C1=C(c2ccccc2)Nc2nnnn2C1`, the Potency was inactive: > 76.9 µM.

Take `Cc1cc(NC(=O)c2ccc(S(=O)(=O)N3CCOCC3)cc2)nc2c1c(=O)oc1ccccc12`: the Potency was inactive: > 76.9 µM.

On to `CCC(C)n1cnc2c(c1=O)c1nc3ccccc3nc1n2-c1ccc2c(c1)OCCO2` (stereo unspecified), for which the Potency entry is “inactive”.

Consider `CC1(C)C2CCC1(C)C(OC(=O)CCn1ccnc1)C2` (stereo unspecified), for which the Potency is inactive: > 76.9 µM.

On to `COc1ccccc1C(=O)N1CCN(c2cccc(Cl)c2)CC1`, for which the Potency is inactive: > 76.9 µM.

For `O=C(CNC(=O)c1ccco1)OC(C(=O)c1ccccc1)c1ccccc1` (stereo unspecified), the Potency was inactive: > 76.9 µM.

Consider `Cc1nnc(Sc2nc(Sc3nnc(C)s3)nc(N3CCN(C)CC3)n2)s1`, for which the Potency is inactive: > 76.9 µM.

As to `Cn1c(=O)c2c(nc(SCc3ccccn3)n2C)n(C)c1=O`, the Potency is inactive: > 76.9 µM.

On to `O=C(c1ccc(NS(=O)(=O)c2cccc3cccnc23)cc1)N1CCOCC1`, for which the Potency was inactive: > 76.9 µM.

Regarding `C=CCn1c(SCC(=O)NCc2ccco2)nc2sc3c(c2c1=O)CCCCC3`, the Potency is inactive: > 76.9 µM.

Consider `CCN(CC)CCOC(=O)C12CC3CC(CC(C3)C1)C2`, for which the Potency was inactive: > 76.9 µM.

Regarding `CCOC(=O)c1[nH]c(C)c(C(=O)Nc2ccc3c(c2)CCC3)c1C`, the Potency was inactive: > 76.9 µM.

On to `CNC(=O)c1cc(S(=O)(=O)N(C)C)ccc1Cl`, for which the Potency was inactive: > 76.9 µM.

In the case of `COc1cccc(CNC(=O)C2CCN(S(=O)(=O)c3ccc(F)cc3)CC2)c1`, the Potency was inactive: > 76.9 µM.

For `Cn1c(SCC(N)=O)nnc1-c1ccccc1`, the Potency was inactive: > 76.9 µM.

As to `COc1cccc(N(C(C)=O)c2nc(C)cc(C)c2C#N)c1`, the Potency is inactive: > 76.9 µM.

With `CCOC(=O)CNC(=O)CN1CCCN(S(=O)(=O)c2ccc(Br)s2)CC1`, the Potency is inactive: > 76.9 µM.

Consider `CC1(C)CC(=O)C=C(Nc2ccccc2NC(=O)c2cnccn2)C1`, for which the Potency was inactive: > 76.9 µM.

Regarding `CCCS(=O)(=O)N1CCCC(C(=O)NCCCN(Cc2ccccc2)C(C)C)C1` (stereo unspecified), the Potency is inactive: > 76.9 µM.

Regarding `CCCn1c(SC2C(=O)CC(C)(C)CC2=O)nc2c1c(=O)n(C)c(=O)n2C`, the Potency is inactive: > 76.9 µM.

Turning to `Cc1cccc(-c2cc3nc4c(c(N5CCC6(CC5)OCCO6)n3n2)CCCC4)c1`, the Potency result is “inactive”.

In the case of `Cc1ccccc1-n1nc2c(c1NC(=O)c1ccc(S(=O)(=O)N(C)C)cc1)CSC2`, the Potency is inactive: > 76.9 µM.

With `Cc1cc(C)nc(N2C(=O)CC(C(=O)O)NC2=NCCc2c[nH]c3ccccc23)n1` (stereo unspecified), the Potency is inactive: > 76.9 µM.

As to `O=C(Cc1cccs1)NCc1ccccc1F`, the Potency was inactive: > 76.9 µM.

As for `COc1ccc(C(=O)N2CCN(C3CCCCC3)CC2)c(OC)c1`, the Potency was inactive: > 76.9 µM.

As to `Cc1cccc(N(C)C(=O)c2cc3cc4ccc(C)cc4nc3o2)c1`, the Potency is inactive: > 76.9 µM.

As for `CCOc1ccc(-n2cnnn2)cc1S(=O)(=O)NCc1ccccc1`, the Potency was inactive: > 76.9 µM.

Regarding `CCCn1c(SCC(=O)Nc2nnc(C)s2)nnc1-c1ccoc1C`, the Potency was inactive: > 76.9 µM.

As for `O=C(NCCCN1CCCC1=O)c1ccccc1NS(=O)(=O)c1ccc(F)cc1`, the Potency was inactive: > 76.9 µM.

Take `CSc1nc(C)c2cc(C)oc2n1`: the Potency is inactive: > 76.9 µM.

As to `O=C(CSc1nnc(Cc2ccccc2)o1)Nc1ccc(Br)cn1`, the Potency was inactive: > 76.9 µM.

`O=C(Oc1nsnc1N1CCOCC1)N1CCCCC1`: the Potency was inactive: > 76.9 µM.

For the compound `Cc1cc(C(=O)N2CCN(C(=O)C3CCCO3)CC2)no1` (stereo unspecified), the Potency is inactive: > 76.9 µM.

In the case of `CC(=C1C(=O)c2ccccc2C1=O)N1CCc2ccccc2C1`, the Potency was inactive: > 76.9 µM.

`CN(C)CCSc1nnc2sc3ccccc3n12`: the Potency is inactive: > 76.9 µM.

Regarding `Cc1ccc(S(=O)(=O)N2CCCN(S(=O)(=O)c3ccc4c(c3)OCCO4)CC2)cc1`, the Potency is inactive: > 76.9 µM.

As for `Cc1ccc(S(=O)(=O)N2CCC(C(=O)N[C@@H](Cc3ccccc3)C(=O)O)CC2)cc1`, the Potency was inactive: > 76.9 µM.

As for `COCCn1nnnc1C(c1ccc(OC)cc1OC)N1CCN(c2ccccc2F)CC1` (stereo unspecified), the Potency was inactive: > 76.9 µM.

For the compound `COc1ccc(N2C(=O)C3CCCN3C2c2cccc(C)c2)cc1Cl` (stereo unspecified), the Potency is inactive: > 76.9 µM.

For `CC(=O)N(Cc1cccnc1)Cc1cc2ccccc2[nH]c1=O`, the Potency is inactive: > 76.9 µM.

As for `Cc1cccc(-n2nc3c(c2NC(=O)c2ccco2)CSC3)c1C`, the Potency is inactive: > 76.9 µM.

`O=C1c2ccccc2C(=O)N1Cc1nc(-c2ccccc2)no1`: the Potency was inactive: > 76.9 µM.

Regarding `Cc1nnc(SCC(=O)N(C(C)C)C(C)C)nc1C`, the Potency was inactive: > 76.9 µM.

Regarding `Clc1ccc(-c2ccc(-c3nn4c(-c5ccco5)nnc4s3)o2)cc1`, the Potency was inactive: > 76.9 µM.

Regarding `COc1ccc(CNC(=O)C2CC(=O)N(c3ccc(OCC(=O)N4CCCCC4)cc3)C2)cc1` (stereo unspecified), the Potency was inactive: > 76.9 µM.

On to `O=C(Cn1cnc2ccccc2c1=O)c1c[nH]c2ccccc12`, for which the Potency was inactive: > 76.9 µM.

As to `Clc1ccccc1-c1nnc2sc(CCc3ccccc3)nn12`, the Potency is inactive: > 76.9 µM.

Take `COc1cccc(C(=O)Nc2ccc(N(C)C)cc2)c1OC`: the Potency is inactive: > 76.9 µM.

As to `CCOC(=O)Cc1nc2ccccc2[nH]1`, the Potency is inactive: > 76.9 µM.

Take `CCOC(=O)c1c(C)n(C)c2cc(OCCN(CC)CC)ccc12`: the Potency is inactive: > 76.9 µM.

For `Cc1ccc(CNC(=O)c2cn(C3CCCC3)c(=O)c3c2c2ccccc2n3C)o1`, the Potency is inactive: > 76.9 µM.

Turning to `Cn1c(=O)[nH]c(=O)c2c1nc(Br)n2CC(O)c1ccccc1` (stereo unspecified), the Potency is inactive: > 76.9 µM.

In the case of `CC(C)NC(=O)CCCc1cn(C)c2ccccc12`, the Potency is inactive: > 76.9 µM.

On to `CCn1nc(CC(=O)Nc2nnc(CC(=O)N3CCCCC3)s2)c2ccccc2c1=O`, for which the Potency was inactive: > 76.9 µM.

Turning to `Cc1cc(Oc2ccccc2)nc(N)n1`, the Potency was inactive: > 76.9 µM.

With `COc1cc(OC)c(NC(=O)c2c(-c3ccccc3)noc2C)cc1Cl`, the Potency is inactive: > 76.9 µM.
